Laboratory results reported in PubChem BioAssay AID1963576 (National Center for Advancing Translational Sciences (NCATS), 2024).
The campaign covered roughly 46,000 compounds. About 60 (0.1%) were called active. About 3% were inconclusive and are not listed. Calls follow the shape of the dose curve; as a rule, active = well fitted inhibition curve with a large enough effect; inconclusive = small, poorly fitted or top-dose-only effect; inactive = no such curve, though single readings can be large or run the other way. The list shows a part of the results.

assay: Primary qHTS assay for Inhibitors of ovarian cancer metastasis using an organotypic tumor microenvironment (TME) model.; also: nearly all actives have a fitted effect of over 65% in size;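 as to activity change, negative = inhibition: plate controls were DMSO wells for no effect and tomatine positive control wells for full effect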; conditions: SKOV3ip1-GFP adhesion/invasion on 3D omental model, fluorescence; series mostly up to 45.8 µM; activity change, negative = inhibition: at the top concentration
In short: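 A 3D layer of primary human omental fibroblasts, mesothelial cells, fibronectin and collagen I, grown 48 hr, received SKOV3ip1-GFP cells in serum-free medium plus compounds at 0.36-46 umol/L. After 2 hr RT and 16 hr 37 C, fixed adherent GFP cells were counted; normalized to DMSO and tomatine.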

Row | SMILES | activity change, negative = inhibition | outcome
1 | Cc1ccc(C)c(Nc2ncnc3onc(C)c23)c1 | inactive: -2.99% | 
2 | O=C(Cn1c(=O)c2ccccc2n(CC(=O)Nc2ccc(F)cc2F)c1=O)NCCc1ccccc1 | inactive: 14.7% | 
3 | COc1ccc(-c2nc3cc(C(C)C)ccc3o2)cc1NC(=O)COc1ccc(C)cc1C | inactive: 1.62% | 
4 | CCN(CC)CCNC(=O)c1ccc2c(c1)NC(=O)C(CS(=O)(=O)Cc1cccc(Br)c1)N2 (stereo unspecified) | inactive: -4.57% | 
5 | Cc1ccc(-c2nc3scc(CCNS(=O)(=O)c4ccc(F)c(C)c4)n3n2)cc1 |  | inactive
6 | CCc1ccc(OCCCn2c(-c3ccc(Cl)cc3)nc3ccccc3c2=O)cc1 | inactive: -0.49% | 
7 | CCN(CC)c1ccc(CN(C(=O)Cc2coc3ccc(C)cc23)C2CCS(=O)(=O)C2)cc1 (stereo unspecified) | inactive: -7.12% | 
8 | CCOc1cccc(CC(=O)N2CCc3c([nH]c4ccccc34)C2c2ccccc2)c1OCC (stereo unspecified) | inactive: -4.44% | 
9 | CCn1nc(C)c2c(-c3ccccc3)cc(=O)n(C(C)C(=O)NCc3cccc(OC)c3)c21 (stereo unspecified) | inactive: 6.25% | 
10 | CCOc1ccccc1CNCc1c(C(=O)O)c(C)n(Cc2ccc(Cl)cc2)c1C | inactive: 17.5% | 
11 | CCN(Cc1ccccc1)Cc1c(O)ccc2c(=O)c(-c3ccccc3)c(C(F)(F)F)oc12 | inactive: 1.39% | 
12 | COc1ccc(C(=O)Nc2cc(C(C)C)c(O)c(S(=O)(=O)c3ccc(Cl)cc3)c2C)cc1 | inactive: 1.41% | 
13 | O=C(c1[nH]c2ccccc2c1Sc1ccc(Cl)cc1)N1CCCCC1 | inactive: -12.3% | 
14 | O=C1CC(c2ccccc2)Sc2nc(-c3ccc(F)cc3)nn21 (stereo unspecified) |  | inactive
15 | Cc1ccc(OCC(=O)OCc2cc(=O)n3nc(C4CCCCC4)sc3n2)cc1C | inactive: -3.7% | 
16 | CCC1CN(C(=O)N2CCC(C(=O)NCCc3ccccc3C)CC2)c2ccccc2O1 (stereo unspecified) | inactive: -9.55% | 
17 | O=C(NCCSCc1cccc(Cl)c1)C1CCN(S(=O)(=O)Cc2ccccc2)CC1 |  | inactive
18 | c1ccc(-c2nnc(CN3CCN(c4ccccn4)CC3)o2)cc1 | inactive: 3.55% | 
19 | CCN(CC)c1ccc(NC(=O)c2cc(C)nc3c2c(C)nn3-c2cccc(F)c2)c(C)c1 | inactive: 3.75% | 
20 | Cc1ccc(Cl)cc1NC(=O)CSc1ccc(C(=O)O)cn1 | inactive: -17.6% | 
21 | Cc1nc2nc(SCc3ccc(F)cc3Cl)nn2c(C)c1Cc1ccccc1 |  | inactive
22 | CCOc1ccc(-c2cn3c(n2)sc2cc(C(=O)NCCCc4ccccc4)ccc23)cc1 | inactive: 2.46% | 
23 | O=C(COc1ccc(F)cc1)Nc1ccccc1C(=O)OCc1cc(=O)n2nc(C3CC3)sc2n1 | inactive: -0.713% | 
24 | COc1cc(C2c3c(oc4ccccc4c3=O)C(=O)N2c2nncs2)cc(OC)c1OC (stereo unspecified) |  | inactive
25 | COc1ccc(C(CC(=O)Nc2cccc(C)c2C)N2Cc3ccccc3C2=O)cc1 (stereo unspecified) | inactive: 23.2% | 
26 | Cc1cccc(-c2cc(NC(=O)C(C)(C)C)n(-c3ccccc3)n2)c1 | inactive: -0.75% | 
